From the supplement of paper PMC4723716 come the findings set out here.

± gives the uncertainty stated by the source. Over roughly 9,900 compounds, “viability index relative to DMSO control” has its median near 1; the lowest 2% begin near 0.85. The list shows a part of the results.

The test deals with Plasmodium falciparum NF54 stage V gametocytes. The test is described as follows: viability index relative to DMSO control (fraction); higher = less gametocyte killing. Conditions: 2.5 µM, library set: Broad Institute DOS, incubation time: 72 h. The gist of the method:
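Stage V gametocytes of P. falciparum NF54 were held in serum-free screening medium at 0.75% gametocytemia and 1.25% hematocrit, 10 µl per well of a 1,536-well plate, and exposed to compound at 2.5 µM for 72 hr at 37°C under low oxygen. A 3 µl mix of 2.5 µM MitoTracker Red CMXRos with 0.13% saponin was then added for one to two hours, after which one field per well was imaged and red particles of 20–70 µm2 were counted. The viability index equals this count divided by the plate mean from wells given solvent alone.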
`O=C(CC1CC1)N1CC(=O)N2[C@H](C1)[C@H](c1ccc(C#Cc3cccc(F)c3)cc1)[C@@H]2CO` had a viability index of 0.974 ± 0.063.

In turn, `CC(C)NC(=O)Nc1ccc2c(c1)C(=O)N(C)[C@H]1CC[C@H](CC(=O)NCc3ccc(F)cc3)O[C@@H]1CO2` yielded a viability index of 1 ± 0.024.

In turn, `COc1ccc2c3c([nH]c2c1)[C@@H](CO)N(Cc1ccccc1)C[C@]31CN(C1)C(=O)Nc1cccc(F)c1` showed a viability index of 1.011 ± 0.0031.

In the case of `CO[C@@H](CN(C)Cc1nccs1)[C@@H](C)CN([C@H](C)CO)S(=O)(=O)c1ccc(F)cc1`, the viability index turned out to be 1.07 ± 0.043.

The compound `C[C@@H]1CN([C@H](C)CO)C(=O)CCCn2nncc2CO[C@@H]1CN(C)C(=O)Nc1ccnc(N2CCOCC2)c1` had a viability index of 1.04 ± 0.051.

Take `CC(C)[C@H]1C/C=C/C[C@H](C)Oc2ccccc2C(=O)N(C)[C@H](C(C)C)C(=O)N1.CC(C)[C@H]1C/C=C\C[C@H](C)Oc2ccccc2C(=O)N(C)[C@H](C(C)C)C(=O)N1`: the viability index amounted to 0.998 ± 0.014.

Compound `O=C(C[C@H]1C[C@@H]2c3cc(NS(=O)(=O)c4ccccc4)ccc3O[C@@H]2[C@@H](CO)O1)NCC(F)(F)F` displayed a viability index of 1.1 ± 0.011.

As to `COc1ccc2c3c([nH]c2c1)[C@@H](CO)N(C[C@]31CN(C1)C(=O)CC1CC1)C(=O)c1cccc(F)c1`, the viability index was 1.05 ± 0.03.

On to `O=C(C[C@H]1CC[C@@H]2NC[C@@H](O)COC[C@H]2O1)NCc1ccc2c(c1)OCO2`, for which the viability index stood at 1.09 ± 0.031.

Regarding `COc1ccccc1CNC(=O)C[C@H]1CC[C@@H]2[C@H](COC[C@H](O)CN2Cc2ccc3c(c2)OCO3)O1`, the viability index came out at 1.14 ± 0.06.

Regarding `CN(C)C(=O)c1ccc(-c2ccccc2[C@H]2[C@H](C#N)N(C(=O)C3CC3)[C@H]2CO)cc1`, the viability index was found to be 1.17 ± 0.11.

On to `CNC[C@H]1OCCCC[C@@H](C)Oc2ccc(NS(=O)(=O)c3ccc(F)cc3)cc2C(=O)N([C@@H](C)CO)C[C@H]1C`, for which the viability index turned out to be 1.09 ± 0.025.

In turn, `N#Cc1cccc(-c2ccc([C@H]3[C@H]4CNC[C@@H]3N4C(=O)Nc3cccc(F)c3)cc2)c1` displayed a viability index of 1.02 ± 0.066.

Regarding `C[C@H](NC(=O)C[C@H]1C[C@H]2c3cc(NS(=O)(=O)c4ccc(F)cc4)ccc3O[C@H]2[C@H](CO)O1)c1ccccc1`, the viability index was determined as 1.09 ± 0.033.

The compound `CO[C@H](CN(C)S(=O)(=O)c1ccc(C)cc1)[C@@H](C)CN([C@H](C)CO)S(=O)(=O)c1cccc(Cl)c1` returned a viability index of 1.019 ± 0.004.

In turn, `O=C(Nc1cccc(F)c1)N1CCCCN2[C@H](CO)[C@H](c3ccc(C#Cc4cccnc4)cc3)[C@H]2C1` showed a viability index of 0.848 ± 0.034.

Regarding `Cc1noc(C)c1NC(=O)Nc1ccc2c(c1)C(=O)N([C@H](C)CO)C[C@@H](C)[C@@H](CN(C)S(=O)(=O)c1cccs1)OCCCC[C@H](C)O2`, the viability index was 1.03 ± 0.16.

In turn, `CO[C@@H]1CN(C)C(=O)c2ccc(NC(=O)Nc3ccccc3Cl)cc2OC[C@H](C)NC[C@H]1C` returned a viability index of 1.06 ± 0.018.

The compound `COc1ccccc1-c1ccc([C@H]2[C@@H](CO)N3CCCCN(C(=O)c4cccnc4)C[C@@H]23)cc1` displayed a viability index of 1.05 ± 0.039.

In the case of `C/C=C/c1ccc([C@@H]2[C@@H](CO)N(c3nc(CC)cs3)[C@H]2C#N)cc1`, the viability index was 1.043 ± 0.0025.

In turn, `O=C(C1CCCC1)N1CC2(C1)[C@@H](c1ccccc1)[C@H](CO)N2Cc1ccc(Cl)cc1` yielded a viability index of 1.113 ± 0.0016.

`COc1cccc(C(=O)Nc2ccc3c(c2)C(=O)N(C)[C@@H]2CC[C@H](CC(=O)N[C@H](C)c4ccccc4)O[C@H]2CO3)c1` returned a viability index of 1.07 ± 0.1.

Consider `CN1CCN(C(=O)C[C@@H]2CC[C@@H]3[C@@H](COc4ccc(NC(=O)c5cccs5)cc4C(=O)N3C)O2)CC1`, for which the viability index is 1.03 ± 0.073.

Take `COc1ccc(CNC(=O)C[C@H]2C=C[C@@H](NC(=O)c3cccc(F)c3)[C@@H](CO)O2)cc1`: the viability index was 0.923 ± 0.14.

Consider `CC(C)C#Cc1ccc([C@H]2[C@@H](CO)N3C(=O)CN(C(=O)NC4CCCC4)C[C@@H]23)cc1`, for which the viability index turned out to be 1.06 ± 0.029.

Consider `COCC(=O)N1CC(=O)N2[C@H](CO)[C@H](c3ccc(C#CC4CC4)cc3)[C@H]2C1`, for which the viability index was found to be 1.11 ± 0.027.

On to `C[C@H]1CN([C@@H](C)CO)C(=O)c2ccccc2-c2ccccc2CO[C@@H]1CN(C)C(=O)Nc1cccc(Cl)c1Cl`, for which the viability index is 0.947 ± 0.091.

Compound `CC(C)NC(=O)Nc1ccc2c(c1)C(=O)N([C@@H](C)CO)C[C@H](C)[C@H](CN(C)C(=O)C1CCCCC1)OCCCC[C@H](C)O2` came in with a viability index of 1.04 ± 0.021.

Compound `COc1ccccc1CN1C[C@@H]2N[C@H](C1)[C@@H]2c1ccc(-c2ccncc2)cc1` gave a viability index of 1.05 ± 0.11.

In turn, `C/C=C/c1ccc([C@@H]2[C@H](CO)N(C(=O)c3cnccn3)C23CN(C(=O)C2CCC2)C3)cc1` displayed a viability index of 1.12 ± 0.095.

In turn, `O=C1CNC[C@H]2[C@H](c3ccc(C#CC4CCCCC4)cc3)[C@@H](CO)N12` showed a viability index of 1.03 ± 0.076.

In turn, `CCC(=O)N1[C@H](C(=O)NCc2ccc(F)cc2)[C@@H](CO)[C@@H]2Cn3c(ccc(C4=CCCCC4)c3=O)[C@@H]21` had a viability index of 1.08 ± 0.047.

With `O=C(N[C@H]1CC[C@H](CCn2cc(-c3ccccc3F)nn2)O[C@H]1CO)c1ccc2c(c1)OCO2`, the viability index came to 1.1 ± 0.15.

In turn, `CNC[C@@H]1OCc2cn(nn2)CCCC(=O)N([C@H](C)CO)C[C@@H]1C` returned a viability index of 1.06 ± 0.02.

The compound `C[C@@H]1CN([C@H](C)CO)S(=O)(=O)c2ccc(-c3cccc(C#N)c3)cc2O[C@@H]1CN(C)C(=O)c1ccccc1` displayed a viability index of 0.996 ± 0.05.

Turning to `CO[C@@H]1CN(C)C(=O)c2cc(NC(=O)C3CC3)ccc2OC[C@H](C)N(Cc2cc(F)ccc2F)C[C@H]1C`, the viability index came to 1.04 ± 0.039.

Regarding `CCNC(=O)c1cc2c(c(-c3cccc(-c4cncnc4)c3)n1)[C@H](CCO)N(C(C)=O)C2`, the viability index was found to be 0.926 ± 0.03.

Take `CN1C(=O)c2cc(NC(=O)Nc3ccc(Cl)cc3)ccc2OC[C@H]2O[C@H](CC(=O)NCCN3CCCCC3)CC[C@H]21`: the viability index turned out to be 1.05 ± 0.041.

In turn, `O=C(Nc1ccccc1Cl)N1C[C@@H]2[C@H](c3ccccc31)[C@@H](CO)N2C(=O)c1cccnc1` showed a viability index of 1.02 ± 0.013.

The compound `COc1ccc(NC(=O)Nc2ccc3c(c2)[C@H]2C[C@H](CC(=O)NCC(F)(F)F)O[C@H](CO)[C@H]2O3)cc1` registered a viability index of 1.05 ± 0.036.

The compound `Cc1noc(C)c1S(=O)(=O)N(C)C[C@H]1OCCCC[C@H](C)Oc2ccc(NS(=O)(=O)c3cn(C)cn3)cc2C(=O)N([C@H](C)CO)C[C@@H]1C` registered a viability index of 1.08 ± 0.019.

Turning to `O=C(CC(F)(F)F)N1C[C@@H]2[C@H](c3ccccc31)[C@@H](CO)N2C(=O)c1ccncc1`, the viability index stood at 1.08 ± 0.011.

Turning to `O=C(Nc1ccc2c(c1)[C@@H]1C[C@@H](CC(=O)N3CCc4ccccc4C3)O[C@H](CO)[C@@H]1O2)c1ccc2c(c1)OCO2`, the viability index is 1.04 ± 0.054.
